Among all 410,000 compounds or so, about 6,400 (1.6%) were called active. Inconclusive means that the source gave no clear call. Such entries were picked first, then a sample of the others. The call rests on the fitted dose curve; in most records, active means well fitted inhibition curve with a large enough effect; inconclusive means small, poorly fitted or top-dose-only effect; inactive means no such curve, though single readings can be large or run the other way. No potency is given beside an inconclusive call; the fits are too rough.
Target: Glucagon-like peptide 1 receptor (Homo sapiens) (UniProt P43220)
Assay: qHTS of GLP-1 Receptor Inverse Agonists (Inhibition Mode); further: nearly all actives have a fitted effect of over 55% in size
Conditions: HEK293 GLP-1R CRE-luciferase, luminescence, 24 h, GLP-1R form is constitutively active; series mostly up to 38.3 µM
Method in brief: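 Inverse agonism was detected as reduced cAMP-driven luciferase luminescence after 24 h compound treatment. The cells were HEK293 clones expressing constitutively active human GLP-1R with the reporter. Reporter-only and GPR119 cell lines served as counterscreen controls.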
Potency means the concentration at half of the fitted maximal effect; tags describe the fitted curve by direction and shape.

Chain of UniProt P43220 (P43220 whole entry, looked up): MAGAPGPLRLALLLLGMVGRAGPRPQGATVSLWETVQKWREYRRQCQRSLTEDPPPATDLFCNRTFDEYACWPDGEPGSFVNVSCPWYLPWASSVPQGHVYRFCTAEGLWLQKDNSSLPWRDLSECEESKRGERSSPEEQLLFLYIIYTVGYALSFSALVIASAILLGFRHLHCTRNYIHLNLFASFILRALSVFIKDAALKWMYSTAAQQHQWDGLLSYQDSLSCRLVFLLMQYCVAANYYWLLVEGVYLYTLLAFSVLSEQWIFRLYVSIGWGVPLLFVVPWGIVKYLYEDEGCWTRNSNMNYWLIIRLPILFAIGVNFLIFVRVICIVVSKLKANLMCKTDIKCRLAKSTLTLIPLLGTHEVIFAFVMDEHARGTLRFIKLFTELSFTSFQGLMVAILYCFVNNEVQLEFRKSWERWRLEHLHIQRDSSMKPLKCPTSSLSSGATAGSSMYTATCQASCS

SMILES	Potency
CC(C)c1ccc(OCCCCN2CCCCC2)cc1	inconclusive [inhibitor, partial curve]
Fc1ccccc1NC(=S)N1CCN(Cc2ccc3c(c2)OCO3)CC1	inconclusive [inhibitor, single point]
COc1ccccc1NC(=O)c1ccc(Br)c(S(=O)(=O)N2CCCC2)c1	inconclusive [inhibitor, single point]
Cc1ccc(Nc2nnc(SCC(=O)c3ccc(O)cc3O)s2)cc1	inconclusive [inhibitor, single point]
CCOc1ccc(NC(=O)NC(C)c2ccc3c(c2)OCO3)cc1 (stereo not drawn)	inconclusive [inhibitor, partial curve, poor fit]
CC1(C)CC(=O)C2=C(C1)N=C1c3ccccc3C(=O)C1C2c1ccc(Cl)cc1 (stereo not drawn)	inconclusive [inhibitor, partial curve, poor fit]
Cc1c(C(C)(C)O)[nH]c2cc(C(F)(F)F)ccc12	inconclusive [inhibitor, partial curve, poor fit]
CCOc1ccc(CNC(=O)c2ccc3nc(Cc4ccc(OC)cc4)oc3c2)cc1OC	inactive
O=C(NCc1ccccn1)Nc1ccc(Cl)c(Cl)c1	inconclusive [inhibitor, single point]
CCOc1ccc(S(=O)(=O)N2CCCCC2)cc1NC(=O)Cc1cc(OC)c(OC)c(OC)c1	inactive
O=C(COC(=O)c1cc(Cl)ccc1O)NCCNC(=O)COC(=O)c1cc(Cl)ccc1O	inconclusive [inhibitor, partial curve]
CCOC(=O)c1ccc(NC(=O)CC2C(=O)N(c3ccccc3)C(=O)N2Cc2cccs2)cc1 (stereo not drawn)	inconclusive [inhibitor, single point]
COc1ccc(N2CCN(CC(O)COc3ccc(C(C)(C)C)cc3)CC2)cc1 (stereo not drawn)	inconclusive [inhibitor, partial curve, poor fit]
O=C1OC(Nc2ccc3c(c2)OCO3)c2ccccc21 (stereo not drawn)	inconclusive [inhibitor, partial curve, poor fit]
CCOC(=O)C1(Cc2cccc(F)c2)CCN(Cc2cn(CC)nc2C)CC1	inconclusive [inhibitor, partial curve]
CCOC(=O)c1ccccc1NC(=O)CSc1nc2ncccc2[nH]1	inactive
O=C(NC1CC1)C1=C[C@H](c2ccc(Br)cc2)C[C@H](OCc2ccc(CO)cc2)O1	inactive
CCN1c2ccccc2-c2nc(SCC(=O)Nc3ccc(C)c(Cl)c3)ncc2S1(=O)=O	inconclusive [inhibitor, partial curve, poor fit]
